Laboratory results published in PubChem BioAssay AID493208 (National Center for Advancing Translational Sciences (NCATS), 2011).
Among all 44,000 compounds or so, about 340 (0.77%) were called active. Not shown: some 5% with an inconclusive outcome. The call rests on the fitted dose curve; in most records, active means well fitted inhibition curve with a large enough effect; inconclusive means small, poorly fitted or top-dose-only effect; inactive means flat fitted curve, though single readings scatter. This is one part of the list.

Experiment: Acumen qHTS Assay for Inhibitors of the mTORC1 Signaling Pathway in MEF (Tsc2-/-, p53-/-) Cells: Sytravon;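 further: plate controls were DMSO for no effect and rapamycin for full effect; nearly all actives have a fitted effect of over 50% in size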
Conditions: phospho-rpS6 immunofluorescence/PI, 24 h; series mostly up to 38.3 µM; activity change, negative = inhibition: at the top concentration
Outline: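 Tsc2-/-, p53-/- MEFs (empty-vector stable line) in DMEM + 10% FBS were treated with compounds 24 h at 37 degree Celsius, fixed, and immunostained for phospho-rpS6 (Alexa-488) with propidium iodide counterstain. Laser-scanning cytometry gave % positive cells, normalized against 7.5 nM rapamycin and DMSO.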

Activity change, negative = inhibition, inactive:
Cc1cccc(NC(=O)CSc2nnc(N)s2)c1 9.98%
CC(=O)c1cccc(NCc2ccccc2-c2nnc(-c3ccccc3)o2)c1 -20.9%
CCOc1ccc(S(=O)(=O)N2CCC(N3CCN(Cc4ccc(F)cc4)C(=O)C3=O)CC2)cc1 4.23%
Cc1nc(-n2nc(C)c(Cc3ccccc3Cl)c2C)sc1C(=O)N1CCC(C)CC1 -0.257%
CCOC(=O)C(CC)Sc1ncnc2sc3c(c12)CCCC3 (centres undefined) -15.6%
O=C(CCn1cccn1)NCc1ccc(Cl)cc1 -2.13%
Cc1cccc(-n2ncc(C(=O)N3CCc4ccccc4C3)c2C2CCN(C(=O)OC(C)(C)C)CC2)c1 -3.24%
Cc1nn2c(=O)cc(COC(=O)c3cccc(NC(=O)COc4ccc(C)c(C)c4)c3)nc2s1 12.2%
Cc1c(-c2nsc(NC(=O)c3cccs3)n2)nnn1-c1ccc(Cl)cc1 -8.19%
N#Cc1c[nH]n2c(NC3CCCCC3)c(-c3ccccc3F)nc12 -2.83%
CCSc1ncc(Cl)c(C(=O)N(Cc2ccccc2Cl)C2CCS(=O)(=O)C2)n1 (centres undefined) 2.89%
O=C(C1CCN(S(=O)(=O)c2cccs2)CC1)N1CCN(c2cccc(Cl)c2)CC1 0.69%
O=C(NCCc1ccc(Cl)cc1)C(=O)NCC(c1ccco1)S(=O)(=O)c1cccs1 (centres undefined) -5.74%
CSc1ncc2c(n1)-c1ccccc1N(Cc1ccc(F)cc1)S2(=O)=O -0.657%
COC(=O)c1nnn(CC(=O)Nc2cc(F)ccc2F)c1C(=O)OC -0.621%
COc1ccc(OC)c(CNS(=O)(=O)c2ccc3[nH]c4c(c3c2)CCCCC4)c1 -7.87%
O=c1ccc2cc(S(=O)(=O)NCc3ccc(Br)cc3)ccc2[nH]1 1.19%
Cc1ccc(NC(=O)CSc2nccn2Cc2ccco2)cc1Cl 2.88%
COc1cccc(NC(=O)CSCc2cc(=O)c3ccc(C)c(C)c3[nH]2)c1 -0.625%
Cn1c(=O)c2c(n3c4ccccc4nc13)NC(=O)CC2c1cccc(F)c1 (centres undefined) -10.7%
CCNc1ccc(-c2nc(-c3ccccn3)no2)cc1[N+](=O)[O-] 1.31%
COc1ccc(-c2onc(C)c2C)cc1S(=O)(=O)NCC(C)c1ccccc1 (centres undefined) -3.81%
Cc1cc(NC(=O)COCc2cc(-c3ccc(F)cc3)on2)ccc1Br 0.12%
O=C(CCCCn1c(=O)c2ccccc2n(Cc2ccccc2Cl)c1=O)NCc1ccc2c(c1)OCO2 7.68%
CCOc1ccc(CCNS(=O)(=O)c2c(C)nc3scc(C)n3c2=O)cc1OCC -0.0539%
CCCn1c2ccccc2c2cnn(CC(=O)N3CCN(c4ccccc4F)CC3)c(=O)c21 1.72%
CCOc1ccc(CNC(=O)c2ccc3nc(CC)c(CC)nc3c2)cc1 -1.51%
CC(C)Oc1cccc(C(=O)Nc2ccc3oc(-c4cccc(Cl)c4)nc3c2)c1 -1.79%
COc1cccc(N2CCN(C(=O)CCCn3c(=O)[nH]c4ccc(Br)cc4c3=O)CC2)c1 11.4%
Cc1ccc(Nc2c(-c3ccc(Cl)cc3)nc3sccn23)c(C)c1 -25.2%
Cc1ccc(C)c(NC(=O)N2CCC(CN3CCOCC3)CC2)c1 -2.37%
CCn1c(=O)c2cc(C(=O)NCCCOC)sc2c2ccccc21 -1.97%
Cc1cc(C)n(-c2nc3ccccc3nc2Nc2ccc(Cl)cc2Cl)n1 14.7%
COc1ccc(CNC(=O)CCC2N=C3c4ccccc4N=C(SCc4cccc(F)c4)N3C2=O)cc1 (centres undefined) 0.0741%
CC(=O)N1CCCc2cc(S(=O)(=O)NCc3cccc(C)c3)ccc21 -9.86%
CCCN(CCC)C(=O)Cn1nnc2sc(-c3ccccc3)cc2c1=O -1.71%
O=c1c2cnn(-c3ccc(F)cc3)c2ncn1Cc1cccc(Cl)c1 2.27%
Cc1ccc(C(=O)c2cn(Cc3cccc(C)c3)c3nc(C)ccc3c2=O)cc1 -1.44%
Cc1nn2c(=O)cc(COC(=O)c3cccc(NC(=O)COc4ccccc4Cl)c3)nc2s1 0%
COc1ccc(NC(=O)Cn2c(=O)n(-c3ccccc3)c(=O)c3c4c(sc32)CCCC4)c(OC)c1 -4.2%
Cc1ccc(CNC(=O)c2nc(SCc3ccc(F)cc3)ncc2Cl)cc1 2.33%
CC(C)Oc1ccc(CNS(=O)(=O)c2ccc3c(c2)C(C)(C)C(=O)N3C)cc1 2.54%
COc1ccc(S(=O)(=O)n2nc(C)c(S(=O)(=O)N3CCCCCC3)c2C)cc1 0.394%
Cc1cc(C)n2c(Nc3ccc4c(c3)OCCO4)c(-c3ccc(Cl)cc3)nc2n1 1.37%
Cc1ccccc1NC(=O)NCCCN1CCN(c2ccccc2F)CC1 -3.02%
COC(=O)c1cc(S(=O)(=O)N2CCN(c3ccc(OC)cc3)CC2)c[nH]1 -0.482%
Cc1cc(N2CCCCC2)nc2ccc(NC(=O)/C=C/c3ccc(OC(C)C)cc3)cc12 5.08%
Cc1ccc(NC(=O)c2cnc(N3CCCCC3)c3ccccc23)c(C)c1 -0.909%
COCCCNC(=O)C1CCN(C(=O)c2cnn(-c3ccccc3)c2-n2cccc2)CC1 -3.98%
CCCN1CCN(C(=O)Cn2c(-c3cccs3)cc3ccccc32)CC1 -0.551%
COC(=O)c1c(Oc2ccc(OC)cc2)nnc(-c2ccccc2)c1-c1ccccc1 -11.1%
CCCCOc1ccc(C2=NC(c3cccs3)=Nc3ccc(CC)cc3N2)cc1 -8.95%
CC(C)CC(=O)Nc1nc2nc(-c3ccccc3)cc(=O)n2[nH]1 -1.03%
COc1ccc(CNC(=O)CCCn2nc(C)c3sc4ccccc4c3c2=O)cc1OC 6.73%
CCOc1ccccc1CNC(=O)c1ccc(N2Cc3ccccc3Oc3ncccc32)s1 0.354%
Cc1ccc(N2C(=O)NC(NS(=O)(=O)c3ccccc3)(C(F)(F)F)C2=O)cc1C (centres undefined) -3.69%
Cc1cccc(NC(=O)N2CCN(C(=O)c3nsc4ccccc34)CC2)c1C 10.6%
COc1cccc(NC(=O)CN2C(=O)CSc3ccc(S(=O)(=O)N4CCCC4)cc32)c1 1.9%
Cc1ccc(CNC(=O)c2cccn2-c2nnc(N3CCCC3)s2)cc1 -2.75%
Clc1ccc2c(c1)-c1c(cnc3cc(-c4ccccc4)nn13)CO2 4.51%
COc1ccc(N2CCN(C(=O)c3cnn(-c4ccc(F)cc4)c3-n3cccc3)CC2)cc1 5.27%
COC(=O)COc1ccc2oc(-c3ccc(OC)cc3)cc(=O)c2c1 -2.29%
O=C(Nc1ccc(Br)cc1F)C1CCN(c2nc3ccccc3[nH]2)CC1 0.628%
CCOc1ccc(C(=O)Nc2nnc(S(=O)(=O)Nc3ccccc3)s2)cc1 3.76%
